These results are taken from PMC12136788.

The other results are listed elsewhere or left out.

To fix the notation:
T1: UNK ZnF1-3 (human, UniProt Q9C0B0 31-174)
T1 sequence: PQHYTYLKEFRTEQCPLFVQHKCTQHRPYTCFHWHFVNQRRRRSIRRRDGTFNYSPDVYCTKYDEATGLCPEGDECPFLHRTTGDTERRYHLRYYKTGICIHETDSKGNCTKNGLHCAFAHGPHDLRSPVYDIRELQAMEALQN

B1: 86156745_86156865_1897_CDS_ENSMUSG00000020048_ENSMUST00000020238|mouse|control|control (ssRNA)
RNA: GGGAGUUCUACAGUCCGACGAUCACUCUCAUCAAACUUCACCCCUUCUUUGGCAACAUUCUGAAACCUCUUCCCAUCAAACUCGGGAAGAGCCUGAAUGCAGUAUUCAUCCACAGGCUCUGUGAGAUAAAUGACUUCAUAGCCCAACAGAGGAUUGAGCAUCA
B2: chr12:25362807:25362808:-_ENSG00000133703_ENST00000311936|hu_mus|FALSE|FALSE (ssRNA)
RNA: GGGAGUUCUACAGUCCGACGAUCCUUCUUCUUCUUCCCAUCUUUGCUCAUCUUUUCUUUAUGUUUUCGAAUUUCUCGGACUAAUGUAUAGAAGGCAUCGUCAACACCCUGUCUUGUCUUUGCUGAGGUCUCAAUGAACGGAAUCAACAGAGGAUUGAGCAUCA
B3: 46211499_46211619_697_CDS_ENSG00000189079_ENST00000334344|human|control|control (ssRNA)
RNA: GGGAGUUCUACAGUCCGACGAUCUUUUUCAAGUUGCAUGACGUGCUUGCUUUCAUUUGAUAGGAGAGUGCAUACGUUAAUAGCAAAGUCCACUUCAUUUGGGAGUCCAGAUAACAGUGAAAGCACCAAUUUAUUAUAAUCAUUCAACAGAGGAUUGAGCAUCA
B4: chr6:110421769:110421770:-_ENSG00000112290_ENST00000392587|hu_mus|FALSE|FALSE (ssRNA)
RNA: GGGAGUUCUACAGUCCGACGAUCGCUUUCUUACUCCAGCCAGUCUACUUCAUCGAACUCCGAGUCAUCUUCCGAGUCGCUAUACUCCACAGCAAUGCGGCGAGACAGGAUGGUGGCCACGUCGUUUUCAAUCCGCUCGUGUUUCAACAGAGGAUUGAGCAUCA
B5: chr15:50791314:50791315:+_ENSG00000138592_ENST00000307179|hu_mus|FALSE|FALSE (ssRNA)
RNA: GGGAGUUCUACAGUCCGACGAUCAGCGAUCCAUUAUCUUUGUAAGCAUUAGAUGUGAGGCUGCAAUUUGGAGACGUCAAUAAGCCGACAGCCUACUCCUCUCUAUGUGGCUACAUCAGUUAUGCGUGGUCCCAGGGAAGUAUACAACAGAGGAUUGAGCAUCA
B6: chrX:119387588:119387589:+_ENSG00000177485_ENST00000326624|hu_mus|FALSE|FALSE (ssRNA)
RNA: GGGAGUUCUACAGUCCGACGAUCUGAUAUGCUUUUAACCUGUGACAGUGGGACACCAAGCUCUGCUAUAAAUUUCACGCCUAGUAACUGCCCUGAUUUAAUUAACUCGUCAAGCAAAUCUGCUCUAACACGGACAACUUUGGACAACAGAGGAUUGAGCAUCA
B7: 80014724_80014844_1390_CDS_ENSG00000169727_ENST00000578552|human|control|control (ssRNA)
RNA: GGGAGUUCUACAGUCCGACGAUCAUGGAUCUGGUUGCGGAGCACAGCUGCCCGCAGCAUCAUGGCCUUGGCGCGGCGCUGGAACUCCUUGCCCAUCAACAGAGACUUCUCAAAGGUGGUGCUGCGCUGAUCCACGUCCCGGGCCAACAGAGGAUUGAGCAUCA
B8: 33935379_33951508_1111_CDS_ENSG00000006125_ENST00000262325|human|control|control (ssRNA)
RNA: GGGAGUUCUACAGUCCGACGAUCCUUAUUAAUGUUCUGUGGGUUCAGAUCAAGUAAGUUGCUGUUUGGGUGAGACUCACUGAUUUCAGAUAAUGCCGCUACGGCAUUAGCCACCACCAUUGGAUUUGAAUCUGCUAUGAGAUCCAACAGAGGAUUGAGCAUCA
B9: chr16:16324163:16324164:-_ENSMUSG00000022789_ENSMUST00000023477|mus_hu|FALSE|FALSE (ssRNA)
RNA: GGGAGUUCUACAGUCCGACGAUCUCUAAUGGCAGUCAAAAUGUCAAUAGUGUUAAGGCCACCAAGUGGAUCAACAGAUUCUAAGGUUCGCCCAAAAGUCUCAUGGAAAAUAUAACAAAUUCUAGCACCACCGCAUAGCUCCGACAACAGAGGAUUGAGCAUCA
B10: 86533838_86535145_1911_CDS_ENSMUSG00000047126_ENSMUST00000103186|mouse|control|control (ssRNA)
RNA: GGGAGUUCUACAGUCCGACGAUCGAAGGCAGUACAUUGUUGGAUUAGAUUGUAUUCCAUAAAGACAUCCACAAUCUGGGUGAUAUCAGCAAGAGGCUCUUCAUCCUGAACUAACAUUUGAGCAAACUGCUGUCCUUGAUCUGGCAACAGAGGAUUGAGCAUCA
B11: 47166026_47205435_82_CDS_ENSG00000181555_ENST00000409792|human|control|control (ssRNA)
RNA: GGGAGUUCUACAGUCCGACGAUCUUCAAUCUUUGCCUCAUUUUCUUCUUCUUCAGGGGUCGGGUGCUCCGGGUCGUAGAAAUCCCCCAUCUUCGGAGGCGGCUGCGGCUGCAGCUGCUUCAUCGGGAGCGGCUGGAGACGGCGCAACAGAGGAUUGAGCAUCA
B12: chr3:32335226:32335227:+_ENSMUSG00000027665_ENSMUST00000108243|mus_hu|motif|central (ssRNA)
RNA: GGGAGUUCUACAGUCCGACGAUCUGCUUCUUUAAAUAGUUCAUGCUUUAUGGUUAUUAAUGUAGCCUCACGGAGGCAUUCGGAAGUCACUAUCAUUCCAUUUGGUAGUAAACAUUCUACUAGGAUUCUUGGGGGCAUCAAGUGCAACAGAGGAUUGAGCAUCA
B13: chr4:175158712:175158713:-_ENSG00000164117_ENST00000503293|hu_hu|motif|central (ssRNA)
RNA: GGGAGUUCUACAGUCCGACGAUCGCGACGGGUAUUUCGAAUAAAUUCCCUUUUUGACAUUUUAUUCUUCACAUGAGGGCGGGUGAGGUCAAUGGAAAGUAGAAUCAAAGAGUAGCACAGUACAUAGACAGCAUCAGGACUAAGCAACAGAGGAUUGAGCAUCA
B14: 102329212_102330853_5729_CDS_ENSMUSG00000043940_ENSMUST00000053177|mouse|control|control (ssRNA)
RNA: GGGAGUUCUACAGUCCGACGAUCCCGGUUAAUCUCCCUGACCGUGGAUCUCCCUCCGGCACUCCUGCCCACAUUGAAUCCUAACACAGUUCCAAUCUUGUUUGUCAGGACGGAAUCUGUCUGCUCCAGCCAGCCCCCGCCACUCAACAGAGGAUUGAGCAUCA
B15: chr3:169712149:169712150:+_ENSG00000008952_ENST00000337002|hu_mus|motif|central (ssRNA)
RNA: GGGAGUUCUACAGUCCGACGAUCCAAACACAAGAAGAGAAACAGCCUAAAGGAGGAUGAAGACCUAUAUAUCCAUCACCGGCGGACGGCAAAGCAAAACCACCGUGUGACUAAAGGAAAAUCACUCACUGCUCACUGGGGUGUCAACAGAGGAUUGAGCAUCA
B16: chr6:114281168:114281169:-_ENSG00000196591_ENST00000368632|hu_hu|hu_hu_hu_mus_True|18_68 (ssRNA)
RNA: GGGAGUUCUACAGUCCGACGAUCUUCCAUUUUUCGGUAUAAACCAUAAUUUAGCAGCAAGUUAUGAGUCAUGCGGAUUCUAUGAGGCUUCAUGGGAUGACCCUGGCCAUAAUAAUAAUUUCCAAUAUCACCAUCAUAGUAGUACAACAGAGGAUUGAGCAUCA
B17: chr5:21408736:21408737:-_ENSMUSG00000042453_ENSMUST00000161356|mus_hu|mus_mus_mus_hu_False|58_98 (ssRNA)
RNA: GGGAGUUCUACAGUCCGACGAUCGUUGACAGAGUUGUAAAUGGUGGCUUCAUGGAACUGGAAAGGGGAGCAGCCAAUGCUAUUGGAAGAGGAAGGAAGGCACUGGGUCUGUACGAGCUGCCAGGAAUCCGAUCUUGCAUCCUUCAACAGAGGAUUGAGCAUCA
B18: chr12:39756943:39756944:-_ENSG00000139116_ENST00000544797|hu_mus|hu_hu_hu_mus_False|38_38 (ssRNA)
RNA: GGGAGUUCUACAGUCCGACGAUCGGUUUGGCUGUUACCCCCAAGGGAAUCCUGCAAGAGUCUUGUCAGCUUAGAGUCUCUGUAAGGGACAUGGGUGGCCCUCUUGCUCUUGUCCCCCAAGGCGCUGAUUACAUUCCCAAGAGCCAACAGAGGAUUGAGCAUCA
B19: 165712517_165723485_342_3pUTR_ENSG00000143183_ENST00000464650|human|control|control (ssRNA)
RNA: GGGAGUUCUACAGUCCGACGAUCAGGAAGCUUUGCCACCACUCUACCAUCAAAUAUGGAAUUGAACAUUCCCAUUAGGGCAGUAAAACAAAAGCCAAUAGCAAACAUGGAUUUCAUUCGAACCAUUGAUAGAUCUCUGUUGUUCAACAGAGGAUUGAGCAUCA
B20: chr17:55758012:55758013:+_ENSG00000153944_ENST00000284073|hu_hu|motif|central (ssRNA)
RNA: GGGAGUUCUACAGUCCGACGAUCUGUUUUUAAAAAACAUCUUGGGAAAAGCAGUUUUUCAUAUUUUAAAUAAAAAUCGGACGGGACGGUAACAUUUGAAGCUGUGCACAGACAAGAGGUUAAUAGGCUGGUACAACACUAAUACAACAGAGGAUUGAGCAUCA
B21: chr7:151048522:151048523:+_ENSG00000013374_ENST00000566856|hu_mus|hu_hu_hu_mus_True|68_88 (ssRNA)
RNA: GGGAGUUCUACAGUCCGACGAUCCUGUUUCUUAUUUAUUACGAUCUUGAUAUAAUUUUCUUGAAAUCCAAAGGUUUCAGCUAUUUGACACCUCAGGUCUCUACCAGUGACAUGCAAGCGGGUCUCCAACAAGCUUUUCUUAUCCAACAGAGGAUUGAGCAUCA
B22: chr12:105536279:105536280:+_ENSG00000136051_ENST00000332180|hu_mus|hu_hu_hu_mus_True|1_48 (ssRNA)
RNA: GGGAGUUCUACAGUCCGACGAUCAGCACUGAACAUGUAAUGUAAUCUGGCUGCAUCGACAGCAUUUUCAUAUACAUCAUCUAAAUAAAUUGGGAAGACAGCGCGAUGCCAGUAUAAAAAACAGCAGUCACACUGUGUUUGGACCAACAGAGGAUUGAGCAUCA

The target of the experiment is T1, UNK ZnF1-3. The experiment can be described thus: nsRBNS (natural sequence RNA bind-n-seq); RBNS binding buffer (assumed for nsRBNS): 25 mM Tris pH 7.5, 150 mM KCl, 3 mM MgCl2, 0.01% Triton X-100, 500 ug/ml BSA, 20 U/ml SUPERase-In, 4 C; UNK is unkempt and MSI1 is Musashi-1; names of the RNAs are library labels; protein concentration not given here; high values mean tight binding.
B1 yielded a binding signal of 1.05 enrichment R.

Consider B2, for which the binding signal worked out at 0.537 enrichment R.

Consider B3, for which the binding signal stood at 1.08 enrichment R.

In turn, B4 registered a binding signal of 0.691 enrichment R.

As to B5, the binding signal was determined as 1.03 enrichment R.

B6: the binding signal was 1.1 enrichment R.

In turn, B7 gave a binding signal of 1.06 enrichment R.

Turning to B8, the binding signal came to 0.904 enrichment R.

Molecule B9 returned a binding signal of 1.51 enrichment R.

Molecule B10 displayed a binding signal of 0.871 enrichment R.

Consider B11, for which the binding signal amounted to 1.49 enrichment R.

With B12, the binding signal is 1.1 enrichment R.

For B13, the binding signal amounted to 2.2 enrichment R.

Regarding B14, the binding signal turned out to be 0.729 enrichment R.

Molecule B15 gave a binding signal of 1.75 enrichment R.

In turn, B16 registered a binding signal of 0.964 enrichment R.

On to B17, for which the binding signal came to 1.65 enrichment R.

Molecule B18 displayed a binding signal of 0.772 enrichment R.

With B19, the binding signal was 1.29 enrichment R.

In turn, B20 came in with a binding signal of 2.11 enrichment R.

For B21, the binding signal is 0.933 enrichment R.

Consider B22, for which the binding signal was determined as 1.71 enrichment R.
